Source: PubChem BioAssay AID488969 (Vanderbilt High Throughput Screening Facility, 2010)
In all, about 110,000 compounds were measured (“z-score”: median about -0.1, highest 2% from about 2 on). The list shows a part of the results. The source made the active and inactive calls.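 The calls were made as follows: active = z-score in the third read window above 3 or below -3; inactive = the rest.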

Target: Metabotropic glutamate receptor 8 (Rattus norvegicus) (UniProt P70579)
Experiment: rat mGluR8 modulators via GIRK flux, primary screen, cell-based, thallium flux, HTS (AID 488969)
Settings: HEK293 rat mGluR8, GIRK (G protein-gated inwardly rectifying potassium channel) thallium flux, FluoZin2; at 10 µM; stronger effect = higher value; submaximal glutamate (EC20) added with thallium

UniProt P70579, sequence (P70579 whole entry, looked up): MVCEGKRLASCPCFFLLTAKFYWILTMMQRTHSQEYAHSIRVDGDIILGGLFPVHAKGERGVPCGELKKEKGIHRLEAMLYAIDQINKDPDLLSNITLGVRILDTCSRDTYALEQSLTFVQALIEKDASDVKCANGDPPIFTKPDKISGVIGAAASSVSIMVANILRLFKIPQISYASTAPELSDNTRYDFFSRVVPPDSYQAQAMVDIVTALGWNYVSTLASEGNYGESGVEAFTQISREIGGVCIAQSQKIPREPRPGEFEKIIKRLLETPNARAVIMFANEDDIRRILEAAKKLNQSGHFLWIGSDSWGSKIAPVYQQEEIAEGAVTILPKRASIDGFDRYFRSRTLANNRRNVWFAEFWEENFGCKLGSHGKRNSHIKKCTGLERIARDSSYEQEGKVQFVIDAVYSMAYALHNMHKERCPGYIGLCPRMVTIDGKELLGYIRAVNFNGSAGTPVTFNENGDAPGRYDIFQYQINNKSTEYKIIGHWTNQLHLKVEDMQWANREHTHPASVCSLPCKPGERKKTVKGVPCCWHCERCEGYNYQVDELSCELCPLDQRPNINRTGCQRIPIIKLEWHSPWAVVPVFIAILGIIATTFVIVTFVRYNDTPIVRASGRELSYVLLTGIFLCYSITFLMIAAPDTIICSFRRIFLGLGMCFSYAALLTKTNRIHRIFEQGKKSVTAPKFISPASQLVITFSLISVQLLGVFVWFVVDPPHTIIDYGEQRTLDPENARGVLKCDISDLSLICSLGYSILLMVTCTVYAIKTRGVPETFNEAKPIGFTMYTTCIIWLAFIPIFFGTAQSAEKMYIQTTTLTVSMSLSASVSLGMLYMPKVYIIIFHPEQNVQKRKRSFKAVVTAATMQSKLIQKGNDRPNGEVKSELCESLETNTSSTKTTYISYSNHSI

| Compound | z-score |
| --- | --- |
| O=C(CSCc1ccccc1)NCc1ccc2c(c1)OCO2 | -0.0182 |
| OC(CN(c1ccccc1)c1ccccc1)Cn1cnc2ccccc21 (stereo unspecified) | -0.2 |
| Cc1cc(C)n(Cc2ccc(C(=O)NCCC3=CCCCC3)o2)n1 | 0.00275 |
| CCOC(=O)c1cc(C#N)c(N2CCCC2)nc1-c1ccccc1 | -0.377 |
| CCOC(=O)c1cc(-c2ccccc2)sc1NC(=O)C(C)OC(=O)c1cccnc1OCC (stereo unspecified) | 0.0703 |
| Nc1nnc(SCC(=O)Nc2ccc3nc(SCC(=O)Nc4ccccc4)sc3c2)s1 | -0.307 |
| COc1ccccc1/C=C(/CC(=O)NCc1ccc(F)cc1)c1nc2ccccc2s1 | -0.147 |
| Cn1nnnc1SCc1nnc(-c2ccc(F)cc2)o1 | -0.226 |
| CC(C)CC(=O)NC(=S)Nc1nc(-c2ccccc2)cs1 | 0.855 |
| Cc1ccc(NC(=O)C2CC(=O)N/C(=N/N=C/c3ccco3)S2)cc1 (stereo unspecified) | -0.139 |
| Cc1ccc(/C(N)=N/OC(=O)c2cccc(F)c2)cc1 | -0.182 |
| COc1ccc(NCC(=O)Nc2ccccc2C#N)cc1Cl | -0.204 |
| O=S(=O)(/C=C/c1ccccc1)N1CCN(c2ccccc2)CC1 | 1.11 |
| O=C(NC1(C(F)(F)F)N=C(c2ccccc2)NC1=O)c1ccc(Cl)cc1Cl (stereo unspecified) | -0.164 |
| Cc1ccc(-c2nc3cc(NC(=O)C(C)C)ccc3o2)cc1 | 0.987 |
| S=c1[nH]nc(COc2ccc(Cl)cc2)n1C1CCCCC1 | 1.31 |
| CC(C(=O)NCc1ccc2c(c1)OCO2)N(c1ccccc1)S(C)(=O)=O (stereo unspecified) | -0.988 |
| CCn1ncc([N+](=O)[O-])c1C(=O)n1nc(C)cc1C | -0.167 |
| O=C(/C=C/c1ccccc1Cl)NCc1cccs1 | -0.292 |
| CCOC(=O)C1CCN(Cc2cn[nH]c2-c2ccc(C)cc2)CC1 | 0.226 |
| CCCOc1ccc(C(=O)N2CC3(CC(c4cccc(NC(=O)[C@@H]5CCC(=O)N5)c4)=NO3)C[C@H]2C(=O)NC2(C(N)=O)CC2)cc1 (stereo partly specified) | -0.0331 |
| Clc1ccccc1Nc1c2c(nc3ncnn13)CCC2 | -0.223 |
| Cn1c(=O)oc2cc(S(=O)(=O)N3CCC(C(=O)NCc4ccc(F)cc4)CC3)ccc21 | 0.0719 |

| Compound | z-score |
| --- | --- |
| Cc1ccc(OCCNC(=O)/C=C/c2ccc([N+](=O)[O-])cc2)cc1C | 0.0376 |
| Cc1ccc(N2CCN(C(=O)c3ccccc3NC(=O)/C=C\C(=O)O)CC2)cc1 | -0.105 |
| COc1ccc(-c2nc(-n3c(C)c(C(C)=O)c(C(C)=O)c3C)sc2C)cc1 | -0.845 |
| CCNC(=O)NC(=O)COC(=O)CCCSc1nc2ccccc2[nH]1 | active: 3.23 |
| COc1ccc(C2NC(=O)NC(C)=C2C(=O)Nc2cccc(C)c2C)cc1 (stereo unspecified) | -0.168 |
| O=C(Cn1cnc2ccc(Cl)cc2c1=O)c1cccs1 | 0.277 |
| CCCCN(C)CCNC(=O)c1ccc2c(c1)NC(=O)C(N1CCCCC1)S2 (stereo unspecified) | 0.0831 |
| Cc1ccc(NC(=O)N(Cc2cccs2)Cc2cc3cc4c(cc3[nH]c2=O)OCO4)cc1 | -0.337 |
| Nc1ccccc1NC(=O)c1ccccc1N | 0.194 |
| Cc1cc(=O)oc2cc(OCC(=O)N3CC(C)OC(C)C3)ccc12 (stereo unspecified) | -0.122 |
| CCS(=O)(=O)N1CCN(S(=O)(=O)c2ccc(F)cc2)CC1 | -0.0262 |
| Cc1[nH]n(-c2ccccc2)c(=O)c1N=Nc1nccs1 | active: 14.8 |
| N#CCN1CCC/C1=C\[N+](=O)[O-] | -0.0261 |
| FC(F)(F)c1ccccc1NC(=S)NN1CCOCC1 | 0.379 |
| NC(=O)c1cccc2c1C(=O)N(C1CCCCC1)C2 | -0.392 |
| Nc1cc(=O)[nH]c(=S)n1-c1ccccc1 | -0.0667 |
| CCC(=O)NCc1cc(-c2nn(C)c(=O)c3ccccc23)ccc1C | -0.415 |
| COc1cc(OC)c(OC)cc1/C=N/NC(=O)CC1C(=O)NN=C1C (stereo unspecified) | -0.0262 |
| CCCC(=O)NCCCc1nc2ccccc2n1CCC | 0.81 |
| Cc1ccc(C(=O)CC(=O)c2cc(Cl)ccc2O)cc1 | active: 7.14 |
| Cc1ccc(NC(=O)c2cc(N3C(=O)C4CC=CCC4C3=O)ccc2N2CCOCC2)cc1Cl (stereo unspecified) | -0.529 |
| O=C1N(CC(=O)N2CCc3ccccc32)CCN1Cc1ccccc1Cl | 0.288 |
| Cc1nc2cc(-c3cccs3)[nH]n2c(=O)c1C | -0.15 |

| Compound | z-score |
| --- | --- |
| COc1ccc(-c2c(C(C)=O)c(C)nc3sc4c(=O)[nH]nnc4c23)cc1 | -0.191 |
| CCC1CCCCN1CCCn1c(=S)[nH]c2ccccc2c1=O (stereo unspecified) | active: 7.04 |
| COc1ccc(-c2noc(CSc3nnc(-c4ccncc4)n3-c3ccc(F)cc3)n2)cc1OC | -0.81 |
| NC(=O)c1ccccc1OCC(=O)O | -0.243 |
| Cc1cc(C(F)(F)F)nc(SCC(=O)Nc2ccccc2)n1 | -0.417 |
| CCOC(=O)C1CCCN(c2c(Nc3ccc(OCC)cc3)c(=O)c2=O)C1 (stereo unspecified) | -0.278 |
| CCOC(=O)C(NCc1ccccc1)(NC(=O)c1ccccc1)C(F)(F)F (stereo unspecified) | 0.0476 |
| CCOC(=O)c1ccc(NC(=S)NCC(O)c2ccccc2)cc1 (stereo unspecified) | -0.123 |
| O=C(Nc1nc2ccc(Cl)cc2s1)c1ccc(Br)o1 | active: 6.8 |
| CC(C)(C)C1CCc2c(sc(NC(=O)C3CCCO3)c2C(N)=O)C1 (stereo unspecified) | -0.0203 |
| Cc1cc(S(=O)(=O)N2CCN=C2c2ccccc2)c(C)cc1Cl | -0.0893 |
| Brc1ccc(C2=Nn3c(nnc3-c3ccncc3)SC2)cc1 | -0.243 |
| CCC(C)N1C(=O)CCC1C(=O)NCc1ccc2c(c1)OCO2 (stereo unspecified) | -0.368 |
| CCOC(=O)c1c(NC(=O)CSc2n[nH]c(-c3ccco3)n2)sc(C)c1C | -0.662 |
| CS(=O)(=O)N(CC(=O)NC1CCCC1)c1ccc2c(c1)OCCO2 | 0.443 |
| CCCn1c2c(c(O)c(C(=O)Nc3ccc(OC)cc3)c1=O)CCCC2 | -0.197 |
| CN(C)S(=O)(=O)c1c(Cl)cccc1Cl | 1.61 |
| CCC(=O)NCCCOc1ccccc1 | 0.0285 |
| N=c1sccn1CC(=O)N1CCc2ccccc21 | -0.185 |
| Nc1c(N=Nc2ccccc2F)c(=O)[nH]n1-c1ccccc1 | 0.112 |
| NC(=O)CSCc1c(Cl)cccc1Cl | 0.2 |
| O=C(Nc1ccccc1N1CCN(C(=O)c2ccc(Cl)cc2)CC1)c1ccc2c(c1)OCO2 | -0.293 |
| CC1(C)Cc2c(ccc3ccccc23)C(NNC(=O)c2cccnc2)=N1 | 0.408 |

| Compound | z-score |
| --- | --- |
| CC(=O)CSc1nc2ccccc2s1 | 0.278 |
| Cc1cccc(N(C(=O)Cn2nnc3ccccc32)C(C(=O)NC(C)(C)C)c2ccsc2)c1C (stereo unspecified) | -0.318 |
| COc1cc2c(cc1OC)C(c1ccc(N(C)C)cc1)CC(=O)N2 (stereo unspecified) | -0.191 |
| O=C(NCc1ccco1)C1CCCN(S(=O)(=O)c2cccc3nonc23)C1 (stereo unspecified) | -0.981 |
| CC(=O)c1ccc(OC(=O)N(c2ccccc2)c2ccccc2)cc1 | 2.99 |
| CC(Sc1c[nH]c2ccccc12)C(=O)O (stereo unspecified) | 1.56 |
| COc1ccc(NCc2nc3ccccc3n2CCOc2ccccc2)cc1 | -0.295 |
| CCn1cc(Br)c(C(=O)NC(C)c2ccccc2)n1 (stereo unspecified) | -0.307 |
| O=C(Nc1nccs1)C1Cc2ccccc2CN1S(=O)(=O)c1ccc(F)cc1 (stereo unspecified) | -0.168 |
| O=C(c1cc(-c2ccc(Cl)cc2)n(-c2cc(Cl)ccc2Cl)n1)N1CCOCC1 | -0.562 |
| O=C(NCc1ccco1)c1cccc2ccccc12 | 0.228 |
| Cc1occc1C(=O)Nc1ccc2c(c1)CCC2 | 0.0166 |
| COc1ccc(Cl)cc1NC(=O)COc1cccc(-n2cnnn2)c1 | 0.206 |
| Cc1cccc(NC(=O)Cn2c(=O)n(CCC(=O)NC3CCCC3)c(=O)c3ccccc32)c1 | -0.0709 |
| Cc1cccn2c(=O)c(/C=N/O)c(N3CCCC3)nc12 | active: -3.27 |
| CCCc1cc(=O)[nH]c(SCC(=O)c2cc(C)n(C)c2C)n1 | -0.3 |
| CC1Cc2ccccc2N1C(=O)c1cccnc1 (stereo unspecified) | -0.00769 |
| Cc1ccc(N2CC(C(=O)Nc3nnc(SCC(=O)Nc4nc(C)cs4)s3)CC2=O)cc1 (stereo unspecified) | -0.243 |
| CC1CCCCN1S(=O)(=O)c1ccc(C(=O)Nc2ccccc2-c2nc3ccccc3[nH]2)cc1 (stereo unspecified) | -0.131 |
| O=C(CS(=O)CC(=O)N(CC(=O)NC1CCCC1)c1ccc2c(c1)OCCO2)Nc1ccc(F)cc1 (stereo unspecified) | 0.905 |
| COCc1c(Br)c(C)[nH]c(=O)c1C#N | -0.261 |
| Cc1ccccc1NS(=O)(=O)c1cc(S(C)(=O)=O)ccc1C | -0.0302 |
| CC(NC(=O)C1CCC1)c1ccccc1 (stereo unspecified) | 0.119 |

| Compound | z-score |
| --- | --- |
| N#CCCn1cc(C(=O)Nc2ccccc2Br)c(-c2cc3ccccc3o2)n1 | -0.0782 |
| C/C(N)=C(/C#N)C(=O)COC(=O)c1cc(-c2ccc(Br)cc2)nc2ccccc12 | 0.118 |
| O=C1CN(c2nc(-c3ccccc3)c3cc(Br)ccc3n2)c2ccccc2N1 | -0.78 |
| O=C(CCSc1nccn1Cc1ccccc1)N1CCOCC1 | -0.541 |
| CC1CCc2c(sc3nn[nH]c(=O)c23)C1 (stereo unspecified) | -0.322 |
| COc1cc(C(=O)NCc2cn3cccc(C)c3n2)cc(OC)c1OC | -0.0164 |
| COc1ccc(NC(=O)CSc2nnc(NC(=O)c3ccc(S(=O)(=O)N4CCOCC4)cc3)s2)cc1 | -0.163 |
| O=C(c1ccco1)N1CCN(S(=O)(=O)c2ccc(S(=O)(=O)NC3CCCC3)cc2)CC1 | -0.274 |
| O=C(COc1cc(O)c2c(=O)cc(-c3ccccc3)oc2c1)c1ccc(F)cc1 | -0.141 |
| CC1(C)CC(=O)C2=C(C1)c1c(ccc3ccccc13)NC2c1ccco1 (stereo unspecified) | -0.0447 |
| COc1ccc(/C=N/N=C/c2c[nH]c(=O)c(C#N)c2Nc2ccccc2)cc1 | -0.0461 |
| O=C(CSc1cccc[n+]1[O-])Nc1cc(S(=O)(=O)N2CCOCC2)ccc1N1CCOCC1 | 0.0306 |
| COC(=O)c1ccnc(/C=N/O)c1 | -0.26 |
| O=S(=O)(c1ccc2c(c1)OCCO2)N1CCC(n2nnc3cc(C(F)(F)F)ccc32)CC1 | -0.509 |
| COc1ccc(-c2cc(C(=O)Nc3cc(C)n(Cc4ccc(Cl)cc4)n3)no2)cc1OC | -0.883 |
| Cc1ccc(O)c(N=CC2=C(O)c3ccccc3C2=O)c1 | -0.233 |
| COc1ccc2[nH]c(=O)c(CN(CCO)C(=O)NCc3ccccc3)cc2c1 | -0.542 |
| Cc1ccccc1C(=O)NC(=S)NCC1CCCO1 (stereo unspecified) | 0.185 |
| CCOc1ccc(C(O)Cn2c(=N)n(CCN3CCCCC3)c3ccccc32)cc1 (stereo unspecified) | 1.65 |
